Assay results reported in the supplement of paper PMC10126150.
Values marked as one replicate rest on one cluster of the flow cell; about a third of the high ones do not repeat.
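Also: ATP exposure 15 min at 22 °C before imaging.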

The sequences below were run on ATP (assay: switch fluorescence ratio, 500 uM ATP over buffer (Cy3 cluster intensity, sum of 5 cycles each) (fold (ratio)); higher = stronger signal-on switching upon ATP binding; sequences stand for … in TCGTCGGCAGCGTCAGATGTGTATAAGAGACAGTTTTTTTTTTTTTTTTTTTTTTTTT…TC). Settings: aptamer strand: ATP DNA aptamer (quencher-CACCTGGGGGAGTATTGCGGAGGAAGG + anchor), 100 nM annealed; ATP concentration: 500 uM; one replicate.
Summary of the method: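 The quencher-labelled ATP aptamer, at 100 nM, was annealed to Cy3-labelled switching-strand clusters on a modified Illumina MiSeq flow-cell. The clusters were imaged in selection buffer, then after 15 min with 500 uM ATP at 22 °C, and this buffer/ATP cycle ran five times with NaOH stripping and re-annealing between runs. Per-cluster fluorescence ratios, summed target-cycle over summed buffer-cycle Cy3 intensity, were averaged per switch-domain sequence. Clusters outside 100-1000 RFU were excluded.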
TATCCACCAG showed a switch fluorescence ratio of 1.24. In the case of GTCCCTAAGT, the switch fluorescence ratio is reported as 0.991. For TAATAACCTA, the switch fluorescence ratio was 1.04. In the case of AGGCCGGGCT, the switch fluorescence ratio is reported as 1.02. In the case of ATAACGTAGT, the switch fluorescence ratio is reported as 0.968. GAGTCCAGTG was tested, and the switch fluorescence ratio was 1.33. GTTCCCCC was tested, and the switch fluorescence ratio was 1.13. With GATGGAGACT the switch fluorescence ratio was 0.98. Work on GTCGGCCTGT yielded a switch fluorescence ratio of 1.02. With CTGAAGCGTA the switch fluorescence ratio was 1.12. Sequence GGCACTGGAG has a switch fluorescence ratio of 1.06. AGAATCGCAC was tested, and the switch fluorescence ratio was 1.14. TCAGAATCA was tested, and the switch fluorescence ratio was 1.01. Work on GACCCCTGCT yielded a switch fluorescence ratio of 1.01. TTCGTCGTTG was tested, and the switch fluorescence ratio was 0.944. With CTCTTGGAGT the switch fluorescence ratio was 0.985. ATAACGGCGT gave a switch fluorescence ratio of 0.98. Work on GTTAAGTGTT yielded a switch fluorescence ratio of 1. In the case of AATTACTTAC, the switch fluorescence ratio is reported as 1.38. With ATTTTCATAA the switch fluorescence ratio was 0.976. Work on TGTTCGTTAG yielded a switch fluorescence ratio of 1. In the case of AGCTGCGCAG, the switch fluorescence ratio is reported as 1.02. CTCTTCAATC gave a switch fluorescence ratio of 3.44. For AGGGCAGGTT, the switch fluorescence ratio was 2.61. For TAGATCGCGA, the switch fluorescence ratio was 1.01. AGTTGCCCGT gave a switch fluorescence ratio of 0.965. For ATTGGTGAAC, the switch fluorescence ratio was 1. TACCGTGCGG gave a switch fluorescence ratio of 1.04. For GTAGTGGTGT, the switch fluorescence ratio was 0.936. Sequence AGAGAATTAT has a switch fluorescence ratio of 0.98. With CTAAGCTGCT the switch fluorescence ratio was 1.02. With GGGCGGTAGT the switch fluorescence ratio was 1. CTGAGTGTAA was tested, and the switch fluorescence ratio was 0.998. In the case of TAGCACGATA, the switch fluorescence ratio is reported as 1.13. In the case of CATGCTCGGG, the switch fluorescence ratio is reported as 1.03. TTAGCCGGGC was tested, and the switch fluorescence ratio was 0.991. Sequence TAGCAATCTG has a switch fluorescence ratio of 1.6. In the case of GTTGTGTAGA, the switch fluorescence ratio is reported as 1.01. ACTCTGAATT gave a switch fluorescence ratio of 1.08. TAGATCATCT was tested, and the switch fluorescence ratio was 0.984. CCAGATTAAC gave a switch fluorescence ratio of 1.07. With TCAGACCAGA the switch fluorescence ratio was 1.02. GCCTCTTTCC showed a switch fluorescence ratio of 1.05. In the case of TTCGTGGAGA, the switch fluorescence ratio is reported as 1.03. Work on ACGAATTATA yielded a switch fluorescence ratio of 1.01. Sequence TCAGGATTT has a switch fluorescence ratio of 0.996. TCAGAATCAA gave a switch fluorescence ratio of 1.04. In the case of CCAGTACACG, the switch fluorescence ratio is reported as 0.988. For CAACCGCGGT, the switch fluorescence ratio was 1.91. Sequence CTCAGAAGAG has a switch fluorescence ratio of 1.04. TTCTCTCCGG was tested, and the switch fluorescence ratio was 1.22. For GCGGAAAAGA, the switch fluorescence ratio was 1. TATGGATCAG was tested, and the switch fluorescence ratio was 1.01. For TCTCAGATCT, the switch fluorescence ratio was 1.02. With TCTATGTAAC the switch fluorescence ratio was 1.03. With CAGATGAGTA the switch fluorescence ratio was 1.04. For ACCGTTGTCT, the switch fluorescence ratio was 0.985. In the case of TTAAGACGAA, the switch fluorescence ratio is reported as 0.998. ATAAACGAGT gave a switch fluorescence ratio of 0.94. GGGAAACTGT showed a switch fluorescence ratio of 0.998. In the case of ACAAATGAGG, the switch fluorescence ratio is reported as 0.962. ATTGTATTCG was tested, and the switch fluorescence ratio was 1.05. AGTGGGGCCT gave a switch fluorescence ratio of 0.997. GATGGCAACC gave a switch fluorescence ratio of 1.14. Work on GCCCGCATGA yielded a switch fluorescence ratio of 2.95. Sequence CGTTTTGAAG has a switch fluorescence ratio of 0.992. Sequence GTGTCTGATG has a switch fluorescence ratio of 0.998. With ACGATGATGC the switch fluorescence ratio was 1.21. With TAAGAATATA the switch fluorescence ratio was 1.01. For ACTACTTGAA, the switch fluorescence ratio was 1.03. CAGCGAGAAG showed a switch fluorescence ratio of 0.981. Work on AGCCCGCTAA yielded a switch fluorescence ratio of 0.997. Sequence TACATGAAGT has a switch fluorescence ratio of 1.02. Sequence TGGGCACAGT has a switch fluorescence ratio of 1. Sequence TAGCCGATCT has a switch fluorescence ratio of 1.02. In the case of CGCAATGAAG, the switch fluorescence ratio is reported as 1.8. In the case of ATATAGTAG, the switch fluorescence ratio is reported as 1.02. GGGGTCTCGC gave a switch fluorescence ratio of 0.974. TTAGAATGCT gave a switch fluorescence ratio of 0.991. CCCGGACGTG was tested, and the switch fluorescence ratio was 1.01. TACGCATCGC was tested, and the switch fluorescence ratio was 2.03. ATGTCTGTGG gave a switch fluorescence ratio of 1.03. CGTTAGGAGA gave a switch fluorescence ratio of 0.986. TTAGTCCGTA was tested, and the switch fluorescence ratio was 1.27. With GGCCCACCAC the switch fluorescence ratio was 1. For GTTGTCATA, the switch fluorescence ratio was 0.966. Work on GGCGAATGG yielded a switch fluorescence ratio of 0.959. For CGGTTTTGGA, the switch fluorescence ratio was 0.972. TGGATGAGAG showed a switch fluorescence ratio of 1. TTTCAGTTAT showed a switch fluorescence ratio of 1.01. Sequence CTTCTAACAT has a switch fluorescence ratio of 1.02. AGTTTGGTC was tested, and the switch fluorescence ratio was 0.951. With ACACATGGCC the switch fluorescence ratio was 1.05. GTTTTATTCC showed a switch fluorescence ratio of 1.05. With GGCATTCAGG the switch fluorescence ratio was 1.01. ACAGTGTCAG gave a switch fluorescence ratio of 0.951. Work on ATGGGCGGCT yielded a switch fluorescence ratio of 0.986. ACGAGTCATT was tested, and the switch fluorescence ratio was 1.05. GGAGAATGAT showed a switch fluorescence ratio of 1.01. TCGCAGTCCC showed a switch fluorescence ratio of 1.82. TACCTTCCGC showed a switch fluorescence ratio of 2.71. In the case of CCGTGTTTGT, the switch fluorescence ratio is reported as 1.04. TTGACCACTA showed a switch fluorescence ratio of 1.07. For AGGACGGTTG, the switch fluorescence ratio was 0.962. In the case of TGTGGAGTTT, the switch fluorescence ratio is reported as 0.962. For CAAAACATAT, the switch fluorescence ratio was 1. For CGTAGGGGCA, the switch fluorescence ratio was 0.979. With GGCTGGATAT the switch fluorescence ratio was 0.986. Sequence CGCAAATTGC has a switch fluorescence ratio of 2.15. CACTGGCGCT was tested, and the switch fluorescence ratio was 1.05. CCGCCCAGGG showed a switch fluorescence ratio of 6.1. For GGGAGGCCTC, the switch fluorescence ratio was 0.985. For CTTGGATAT, the switch fluorescence ratio was 1.01. CAACTCGTAA showed a switch fluorescence ratio of 1.05. With TGGCTGTACT the switch fluorescence ratio was 1.02. With CCTGTTATAG the switch fluorescence ratio was 1.1. TAGACAAAC was tested, and the switch fluorescence ratio was 1.12. For GTGCGTATGT, the switch fluorescence ratio was 0.998. CGGCTGCAT showed a switch fluorescence ratio of 1.47. In the case of GGATAGTTCG, the switch fluorescence ratio is reported as 1.06. Work on TAAGTAGGAG yielded a switch fluorescence ratio of 0.98. In the case of CGTCAGGTGG, the switch fluorescence ratio is reported as 1.1. With TTTGACAGTT the switch fluorescence ratio was 0.999. For AAATTTTCTG, the switch fluorescence ratio was 1.04. CCAAGGCCGG showed a switch fluorescence ratio of 1. In the case of AATTATTATG, the switch fluorescence ratio is reported as 0.963. CACTGTCCTC showed a switch fluorescence ratio of 1.06. In the case of AATGGCCTAC, the switch fluorescence ratio is reported as 1.02. Sequence CTGCATTTT has a switch fluorescence ratio of 1.18. TATGGTGGTG showed a switch fluorescence ratio of 1.04. For ACCGGGATC, the switch fluorescence ratio was 1.13. With CCATTTACAG the switch fluorescence ratio was 1.01. GGAATAAGTG gave a switch fluorescence ratio of 1. In the case of TCGCGGTTG, the switch fluorescence ratio is reported as 1.03. Sequence AGTCAGGGGA has a switch fluorescence ratio of 1.04. GGTAGAGTGC gave a switch fluorescence ratio of 1.08. For AGAGTTAGG, the switch fluorescence ratio was 1.02. With TGCGTTACAT the switch fluorescence ratio was 1.03. Sequence ACTCAGCTCG has a switch fluorescence ratio of 1.08. For AGAAATGAGG, the switch fluorescence ratio was 0.978. AATATTGGG gave a switch fluorescence ratio of 0.946. GGTAACGTCT was tested, and the switch fluorescence ratio was 0.951. In the case of TGGTGGTCCG, the switch fluorescence ratio is reported as 0.988. TTATGCTTG was tested, and the switch fluorescence ratio was 1.01. Sequence GCCCGGTCTT has a switch fluorescence ratio of 1.02. Sequence ACTCTTGATG has a switch fluorescence ratio of 0.978. TTGCTTCTTG was tested, and the switch fluorescence ratio was 1.03. Work on GGCGCGAAAT yielded a switch fluorescence ratio of 1.06. CGGCTAGATA gave a switch fluorescence ratio of 0.973. CTGCTGTCGG gave a switch fluorescence ratio of 0.955. AGGGTGCTGA showed a switch fluorescence ratio of 0.989. AGCGGCCGTC showed a switch fluorescence ratio of 1.06. For CTCAGGCCGT, the switch fluorescence ratio was 1.01. For TACGCCATTC, the switch fluorescence ratio was 1.79. Sequence GCCTAACATT has a switch fluorescence ratio of 0.997. CGGTACATGG was tested, and the switch fluorescence ratio was 1.03. GTGGAACTCC gave a switch fluorescence ratio of 1.02.
